From the supplement of paper PMC10338343 come the findings set out here.

± gives the standard deviation. Whole data set: some 6,600 sequences, median “pre-steady-state target cleavage rate” near 0.07, cut for the highest 2% near 0.72. The entries are a selection whose mix differs from that of the whole data set.
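Note: 1 nM active piRISC with 0.1 nM target library at 33 °C single turnover.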

The subject of this assay is MIWI (PIWIL1) piRISC loaded with Kctd7 piRNA (30 nt). Description: pre-steady-state target cleavage rate (min^-1); MIWI and MILI are mouse PIWI proteins and EfPiwi is from a freshwater sponge; tags in brackets are library labels; higher = faster piRNA-guided slicing of the target. As to conditions: guide: Kctd7 piRNA 5'p-UGUUAAUCUCUCAGAGAAGGUGACAGUGAU; auxiliary factor: 500 nM mouse GTSF1. Put shortly: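 A transcribed, DNA-blocked target RNA library […] was incubated at 33 °C for 0–8 or 0–960 min with 1 nM active affinity-purified piRISC carrying one synthetic guide, in HEPES–potassium acetate buffer with or without 500 nM GTSF1 partner protein. Uncleaved targets were then sequenced and normalised to depth and to weakly complementary targets. Data from three trials were pooled, with k3 capped at 0.0001 min^-1, and a burst-and-steady-state fit yielded the pre-steady-state cleavage rate.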
For the sequence UACACUGUCACCUUCUCAGAGAGUUUAACA, the “pre-steady-state target cleavage rate” value is 0.269 ± 0.061.
In the case of UAGUGACAGACCCUUCUCUGAGAGAUUAACA it was 0.0893 ± 0.016.
Turning to UUCACUCUCACCUUCUCUGAGUGAUUAACA, the “pre-steady-state target cleavage rate” value is 0.0282 ± 0.0042.
To “UAGUGAGUCACCUUCUCUGAGAGAUUAACA [g2:g24:cont:t1A]” belongs 0.654 ± 0.038.
In the case of UAGACUGUCACCUUCUCUGAGAGAUUAACCA it was 0.648 ± 0.054; in that of UUCACUGUCACCUUCUCUGACAGAUUAACA, 0.372 ± 0.032; in that of UACACAGUCACCUACUCUGAGAGAUUAACA, 0.697 ± 0.032.
To UAGUGACUCUCCUUCUCUGAGUGAUUAACA belongs 0.00757 ± 0.0019; to UUCACUGUCACCUUCUCUGUCAGAUUAAGA, 0.00879 ± 0.0047; to UAGAGUGUCACCUUCUCUGAGAGUUUAACA, 0.464 ± 0.069.
For UUCACUGUCACCUUGUCAGAGAGAUUAACA, the “pre-steady-state target cleavage rate” value came to 0.158 ± 0.02.
In the case of AUCACUGUCACCUUCUCUGAGUGAUUAUCA it was 0.0511 ± 0.015; in that of UAGUGUCUCACCUUCUCUGAGAGAUUUACA, 0.279 ± 0.04; in that of UAGUGACAGAUCCUUCUCUGAGAGAUUAACA, 0.248 ± 0.021.
In the case of UAGUGACUGACCUUCUCUGAGAGAUUAACA, the “pre-steady-state target cleavage rate” value is 0.363 ± 0.037.
To UAGACUGUGACCUUGUCUGAGAGAUUAACA belongs 0.13 ± 0.022.
For the sequence AUCACAGUCACCUUCUCUGAGAGUUUAACA, the “pre-steady-state target cleavage rate” value came out at 0.505 ± 0.087.
In the case of UAGUCUGUCUCCUUCACUGAGAGAUUAACA it was 0.274 ± 0.019; in that of UUCACUGUCACCUUCUCUGACAGUUUAACA, 0.0439 ± 0.0095; in that of UAGUGAGUCACCUUCUCUGUGAGAUUAUGA, 0.0377 ± 0.011.
To UAGUGACACAGCUUCUCUGAGAGAUUAUCA belongs 0.0896 ± 0.016; to UAGUGUGUCACCUUCUCUGAGAGAUCUAACA, 0.435 ± 0.085.
To AUCACUGUCACCUUCUCUGUGAGAUUAAGA belongs 0.0958 ± 0.016; to AUCACAGUCACCUUCUCUGAGAGAUUUUGA, 0.142 ± 0.043.
With UAGUGACAGUGCUUCUCUGAGAGAGUUAACA, the “pre-steady-state target cleavage rate” value amounted to 0.00888 ± 0.0017.
To UUCACUGUCACCUUCAUCUGAGAGAUUAACA belongs 0.255 ± 0.048; to AUCUCUGUCUCCUUCUCUGAGAGAUUAACA, 0.637 ± 0.042.
In the case of UACACUGACACCUUCUCUGAGAGAUUAUGA it was 0.0627 ± 0.027; in that of UUCACUGUCACCUUCUCUGAGAGAUUGACA, 0.267 ± 0.043.
To UACACAGUCACCUUCUCUGAGAGAUUAAGA belongs 0.112 ± 0.024.
As for UACACUGUCACGUUCUCAGAGAGAUUAACA, the “pre-steady-state target cleavage rate” value was found to be 0.144 ± 0.011.
To UAGUGACAGUGGAACUCUGAGAGUAUAACA belongs less than 0.0001.
In the case of UUCACUGUCACCUUCACUGAGAGAUUAACA it was 0.552 ± 0.031; in that of AUCUGUGUCACCUUCUCUGAGAGAUUAUGA, 0.0903 ± 0.016; in that of UAGUGUGUCACCUUCUCCUGAGAGAUUAACA, 0.124 ± 0.042.
In the case of UUCACUGUCACCUUCUCUCAGAGAUUAACA it was 0.113 ± 0.01.
On to UAGUGUGUCACCUUCUGUGAGAGAUUAUCA, for which the “pre-steady-state target cleavage rate” value worked out at 0.0267 ± 0.0062.
In the case of UAGUGAGUCACCUUUCUCUGAGAGAUUAACA it was 0.382 ± 0.034; in that of UUCACUGUCACCAUCUCUGAGAGAUAAACA, 0.308 ± 0.037; in that of UACACUGUCAGCUUCUCUGAGUGAUUAACA, 0.0155 ± 0.0024.
In the case of UAGUGUCUCACCUACUCUGAGAGAUUAACA it was 0.434 ± 0.031; in that of UAGUGACUCACCUUCUCUGAGAGAUAUAGA, 0.00979 ± 0.0032; in that of AUCACUGUCACCUUCUGAGAGAGAUUAUGA, 0.00906 ± 0.0048.
In the case of UAGACGUCACCUUCUCUGAGAGAUUAACA, the “pre-steady-state target cleavage rate” value turned out to be 0.677 ± 0.035.
In the case of UAGUGACACACCUUCUCUGAGUCUUUAACA it was less than 0.0001; in that of UUCACUGUGAGCUUCUCUGAGAGAUUAACA, 0.515 ± 0.024; in that of UUCACUGUCACCUUCUCUGUGACAUUAACA, 0.0436 ± 0.0063.
To UACACUGUCACCUACUGUGAGAGAUUAACA belongs 0.332 ± 0.024.
In the case of UAGUCUGUCACCUUCUCUGAGUGAUUAAGA it was 0.00589 ± 0.0033.
As to UACACUGUCACCUUCUCUGAGACAUUUACA, the “pre-steady-state target cleavage rate” value came out at 0.0625 ± 0.021.
In the case of AUCACUGACACCUUCUCUGAGAGAUAUUGA it was 0.0703 ± 0.02.
In the case of UAGUCUGUCACCUUCUCUGGAGAUUAACA it was 0.22 ± 0.019.
Turning to UAGUGUGUCACGUUCUCUGAGACAUUAACA, the “pre-steady-state target cleavage rate” value turned out to be 0.0499 ± 0.0086.
UAGCCUGUCACCUUCUCUGAGAGAUUAACA: the “pre-steady-state target cleavage rate” value turned out to be 0.752 ± 0.056.
In the case of UAGUGACACACCUUCUCUCAGAGAUUAACA it was 0.0292 ± 0.0066; in that of UACACUGUGACCUUCUCUGAGAGAUUAUCA, 0.135 ± 0.022.
Take UAGUCUGUCACCUGCUCUGAGAGAUUAACA: the “pre-steady-state target cleavage rate” value turned out to be 0.585 ± 0.03.
Turning to UAGUGACACACCUUCUCUGAGAGAUGUAACA, the “pre-steady-state target cleavage rate” value came to 0.23 ± 0.032.
In the case of UAGUGACUCACCUUCUCUGAGAGUUUAAGA it was 0.0761 ± 0.016; in that of UAGACUGUCACCUUCACUGAGAGAUAAACA, 0.266 ± 0.038; in that of UAGUGACUCACCUUCUCCGAGAGAUUAACA, 0.351 ± 0.07.
To UAGUGACUCUCCUACUCUGAGAGAUUAACA belongs 0.0149 ± 0.0023; to UAGACUGUCACCUUCUCACUGAGAUUAACA, 0.00417 ± 0.0022; to UUCACUGACAGCUUCUCUGAGAGAUUAACA, 0.587 ± 0.03.
Regarding UAGUGACAGACCUUCUCUGAGAGAUAUUCA, the “pre-steady-state target cleavage rate” value turned out to be 0.00856 ± 0.0053.
In the case of UUCACUGUCGACCUUCUCUGAGAGAUUAACA it was 0.195 ± 0.023; in that of UAGUGAGUCACCUUGUCUGAGUGAUUAACA, 0.0224 ± 0.004; in that of UAGUGACACUCCUUCUCUGAGAGAUUAAGA, 0.0528 ± 0.011.
Take UUCACUGUCUCCUUCUCUGAGAGAUUUUGA: the “pre-steady-state target cleavage rate” value was 0.0532 ± 0.018.
As for AUCACUGUCACCUUCUGUGAGAGAUAAACA, the “pre-steady-state target cleavage rate” value was determined as 0.226 ± 0.026.
With UAGUGACUCACCUUCUCUGAGAGAUAAUGA, the “pre-steady-state target cleavage rate” value came out at 0.0193 ± 0.007.
Consider UUCACUGUCACCUUCACUGAGAGAUUAUCA, for which the “pre-steady-state target cleavage rate” value is 0.279 ± 0.044.
